Test results taken from a collection of fitness landscapes (doi:10.1126/science.1257360).
This is one part of the list.

B1: PhoQ; a variant is named by its letters at X, in order, P23837 (parent)
chain: MKKLLRLFFPLSLRVRFLLATAAVVLVLSLAYGMVALIGYSVSFDKTTFRLLRGESNLFYTLAKWENNKLHVELPENIDKQSPTMTLIYDENGQLLWAQRDVPWLMKMIQPDWLKSNGFHEIEADVNDTSLLLSGDHSIQQQLQEVREDDDDAEMTHSVAVNVYPATSRMPKLTIVVVDTIPVELKSSYMVWSWFIYVLSANLLLVIPLLWVAAWWSLRPIEALAKEVRELEEHNRELLNPATTRELTSLVRNLNRLLKSERERYDKYRTTLTDLTHSLKTPLXXLQXXLRSLRSEKMSVSDAEPVMLEQISRISQQIGYYLHRASMRGGTLLSRELHPVAPLLDNLTSALNKVYQRKGVNISLDISPEISFVGEQNDFVEVMGNVLDNACKYCLEFVEISARQTDEHLYIVVEDDGPGIPLSKREVIFDRGQRVDTLRPGQGVGLAVAREITEQYEGKIVAGESMLGGARMEVIFGRQHSAPKDE

Variants of: B1
Test: enrichment ratio after two sorts for PhoP signalling (ratio (wild type AVST 3.29)); higher = more functional
Details: with PhoP (E. coli)

Variant	enrichment ratio
YFMK	≤ 0.25
EMNL	≤ 0.25
RDRW	≤ 0.25
PTYN	≤ 0.25
KVQR	≤ 0.25
GLIW	≤ 0.25
FPLF	≤ 0.25
MVYW	0.543
GVVP	≤ 0.25
VWRN	≤ 0.25
WMTV	≤ 0.25
PEHE	≤ 0.25
WTYC	≤ 0.25
HFPC	≤ 0.25
MRSP	≤ 0.25
DPHD	≤ 0.25
FTCV	0.528
PVGH	≤ 0.25
KYYP	≤ 0.25
IHQS	≤ 0.25
GLDH	0.852
YWRV	≤ 0.25
SMQA	≤ 0.25
GHHS	≤ 0.25

Variant	enrichment ratio
PTLG	≤ 0.25
ARSF	≤ 0.25
KDKV	≤ 0.25
DDTL	1.57
YDVY	≤ 0.25
MNMQ	≤ 0.25
ISYL	0.331
VMPA	≤ 0.25
DCDE	≤ 0.25
IEFN	≤ 0.25
FCLY	0.728
AIWK	≤ 0.25
WASL	≤ 0.25
KMTV	≤ 0.25
WNCP	≤ 0.25
NKCH	≤ 0.25
MHRH	≤ 0.25
YMPQ	≤ 0.25
TTAR	0.591
RWAE	≤ 0.25
ILNK	≤ 0.25
NMWS	≤ 0.25
LIGQ	≤ 0.25
TWNV	≤ 0.25

Variant	enrichment ratio
FSFP	≤ 0.25
YPLC	≤ 0.25
IFWH	≤ 0.25
VHAS	≤ 0.25
HNPE	≤ 0.25
YVPL	≤ 0.25
TYAC	0.469
DVTG	≤ 0.25
FISG	≤ 0.25
FDYN	≤ 0.25
RKWN	≤ 0.25
QINP	≤ 0.25
QCLL	2.35
FVLA	≤ 0.25
GEVQ	≤ 0.25
KPWY	≤ 0.25
HMYN	≤ 0.25
YSES	≤ 0.25
WTFQ	≤ 0.25
PWCD	≤ 0.25
ESSC	≤ 0.25
RKNG	≤ 0.25
YIVH	≤ 0.25
LEFN	0.973

Variant	enrichment ratio
WFIK	≤ 0.25
DKPF	≤ 0.25
ITAE	≤ 0.25
SYGL	≤ 0.25
ERII	≤ 0.25
SVQY	≤ 0.25
RLAQ	≤ 0.25
RCVV	≤ 0.25
VSGR	≤ 0.25
HHHG	≤ 0.25
FYEV	≤ 0.25
ARKD	≤ 0.25
PPSN	≤ 0.25
PVEW	≤ 0.25
WIVM	≤ 0.25
KGLY	≤ 0.25
ECHK	≤ 0.25
TCDD	≤ 0.25
TTKV	≤ 0.25
QMHH	≤ 0.25
ADIP	≤ 0.25
LDVE	≤ 0.25
KTIM	≤ 0.25
DKLW	≤ 0.25

Variant	enrichment ratio
IGNQ	≤ 0.25
HALV	3.66
DRCF	≤ 0.25
KDQS	≤ 0.25
KSNG	≤ 0.25
FFAF	≤ 0.25
FDVT	≤ 0.25
YYLF	≤ 0.25
VTMC	≤ 0.25
HGEH	≤ 0.25
RPNC	≤ 0.25
STYC	0.334
ITNN	≤ 0.25
INEA	≤ 0.25
NHIF	≤ 0.25
ASHY	≤ 0.25
MEQI	≤ 0.25
MQAN	2.41
LVFL	≤ 0.25
EQMF	≤ 0.25
PATR	≤ 0.25
DSQD	≤ 0.25
QVRT	≤ 0.25
PSPL	≤ 0.25

Variant	enrichment ratio
TVPE	≤ 0.25
EDCF	≤ 0.25
ENTF	≤ 0.25
QLSG	1.54
SIKH	≤ 0.25
NNCL	2.05
ITAV	≤ 0.25
LYAV	≤ 0.25
FAIM	0.693
YQAY	≤ 0.25
LFRA	≤ 0.25
MFHS	≤ 0.25
VMKT	≤ 0.25
FPVI	≤ 0.25
NESK	≤ 0.25
EFNQ	≤ 0.25
EDMY	≤ 0.25
GRTW	≤ 0.25
DDFK	≤ 0.25
TQVF	4.29
KRAV	≤ 0.25
KKKL	≤ 0.25
GFME	≤ 0.25
GRWF	0.713

Variant	enrichment ratio
PFCV	≤ 0.25
YSYW	≤ 0.25
TWAM	≤ 0.25
SNIF	≤ 0.25
EILF	≤ 0.25
KPLL	≤ 0.25
HAAN	≤ 0.25
YRHC	≤ 0.25
QRPP	≤ 0.25
EGVA	≤ 0.25
EPVW	≤ 0.25
STAI	11
GLQF	≤ 0.25
LNGN	≤ 0.25
ETAS	≤ 0.25
YMVC	≤ 0.25
TSPD	≤ 0.25
IYCT	≤ 0.25
PGKR	≤ 0.25
AWRQ	≤ 0.25
MCSA	≤ 0.25
WSMN	≤ 0.25
DAQL	≤ 0.25
VMNF	≤ 0.25

Variant	enrichment ratio
PIYR	≤ 0.25
TFKN	0.951
VTSL	6.87
VDEQ	≤ 0.25
MDMV	1.28
EFYF	≤ 0.25
GAIS	≤ 0.25
PHIC	≤ 0.25
IPGK	≤ 0.25
LMIE	≤ 0.25
HYII	≤ 0.25
VCFQ	≤ 0.25
QELA	≤ 0.25
IILC	≤ 0.25
DMYP	≤ 0.25
DMSH	0.854
VAPP	≤ 0.25
LVKN	≤ 0.25
MNAI	4.33
GYIA	≤ 0.25
EKSV	≤ 0.25
MNKM	≤ 0.25
YYSV	≤ 0.25
PLVF	≤ 0.25

Variant	enrichment ratio
FEFC	≤ 0.25
RTSG	≤ 0.25
YFVC	≤ 0.25
PIKS	≤ 0.25
PWFW	≤ 0.25
LGHP	≤ 0.25
GPEF	≤ 0.25
TCRA	≤ 0.25
FCNW	≤ 0.25
TDKV	≤ 0.25
RVHR	≤ 0.25
VMYI	≤ 0.25
FSRS	≤ 0.25
FIRQ	≤ 0.25
NLTD	≤ 0.25
NSWG	≤ 0.25
TQYI	≤ 0.25
VPCE	≤ 0.25
FRAA	≤ 0.25
EFNM	≤ 0.25
KVHF	≤ 0.25
IDIH	≤ 0.25
TTEV	0.701
GLIL	1.59

Variant	enrichment ratio
KELF	≤ 0.25
GEWV	≤ 0.25
PTCA	≤ 0.25
ICRD	≤ 0.25
SYNW	≤ 0.25
SEMW	≤ 0.25
NSSH	≤ 0.25
FDFC	≤ 0.25
GCEK	≤ 0.25
KVFH	≤ 0.25
SIEE	≤ 0.25
WVDF	≤ 0.25
LTCA	0.438
GEVN	≤ 0.25
SSSR	≤ 0.25
AWDV	≤ 0.25
LAFS	≤ 0.25
VAML	7.99
VMWL	≤ 0.25
FPAM	≤ 0.25
TSWP	≤ 0.25
NETP	≤ 0.25
DEQI	≤ 0.25
QAAM	≤ 0.25

Variant	enrichment ratio
GNSD	≤ 0.25
SHCL	7.86
KEKL	≤ 0.25
ILWT	≤ 0.25
LRHW	0.524
FLGE	≤ 0.25
ILIH	≤ 0.25
HEAR	≤ 0.25
VYVD	≤ 0.25
AMKN	≤ 0.25
QIDF	≤ 0.25
RYLD	≤ 0.25
IKHA	≤ 0.25
WPNH	≤ 0.25
ITEE	≤ 0.25
MSCC	2.48
ERPV	≤ 0.25
QAFD	≤ 0.25
TDQW	≤ 0.25
LGQR	≤ 0.25
SFTS	≤ 0.25
YGDP	≤ 0.25
MHSS	≤ 0.25
TSMD	10.7

Variant	enrichment ratio
AKPR	≤ 0.25
KEIP	≤ 0.25
FTQL	≤ 0.25
EVWR	≤ 0.25
CHHY	≤ 0.25
PRVW	≤ 0.25
EMIM	≤ 0.25
IRDW	≤ 0.25
PPNP	≤ 0.25
RVPN	≤ 0.25
GAPQ	≤ 0.25
MMQY	≤ 0.25
IRWM	≤ 0.25
NLIC	≤ 0.25
THGS	≤ 0.25
LEEE	≤ 0.25
ATDS	≤ 0.25
SIRL	≤ 0.25
ILPC	≤ 0.25
GITK	16
DFKC	≤ 0.25
KFAS	≤ 0.25
TDRH	≤ 0.25
MYTN	≤ 0.25

Variant	enrichment ratio
ARLP	≤ 0.25
RHNW	≤ 0.25
PTVK	≤ 0.25
NEFG	≤ 0.25
LMFM	≤ 0.25
DWYR	≤ 0.25
ESIY	≤ 0.25
IYGK	≤ 0.25
FIVE	≤ 0.25
LEDL	≤ 0.25
WFKS	≤ 0.25
FFIT	≤ 0.25
FGQA	≤ 0.25
MLGL	≤ 0.25
TGPK	≤ 0.25
PLLN	≤ 0.25
VFPF	≤ 0.25
EHYM	≤ 0.25
